The whole screen tested about 360,000 compounds, of which about 11,000 (3.1%) were called active. Inconclusive means that the source gave no clear call. Such entries were picked first, then a sample of the others. The call rests on the fitted dose curve; in most records, active means well fitted inhibition curve with a large enough effect; inconclusive means small, poorly fitted or top-dose-only effect; inactive means no such curve, though single readings can be large or run the other way. No potency is given beside an inconclusive call; the fits are too rough.
The compounds below were run against Schistosoma mansoni thioredoxin glutathione reductase (TGR) (UniProt Q962Y6) (assay: qHTS Assay for the Inhibitors of Schistosoma Mansoni Peroxiredoxins). Settings: purified TGR, DTNB reduction, TNB absorbance 405 nm; series mostly up to 114 µM.
Description: Schistosomiasis is a major neglected tropical disease that currently affects over 200 million. It is caused by different species of flatworms, such as Schistosoma mansoni. Over the last century, drugs to treat the disease have evolved from potassium antimonyl tartrate, artemisinin, oxamniquine, to praziquantel, with praziquantel remaining the universally-used single drug of choice over the past three decades. However, transmission rates have changed little with praziquantel, and there is evidence for the development of drug resistant parasites. Because there is currently no suitable alternative therapy available, there is an urgent need to identify new targets and drugs for schistosomiasis treatment. Thioredoxin glutathione reductase (TGR), one uniquely positioned S. mansoni enzyme, has been identified as a major component of the worms' distinct and compressed antioxidant "firewall". TGR is a multifunctional enzyme that catalyzes the interconversion between reduced and oxidized forms of both glutathione (GSH) and thioredoxins, thus making it an attractive new antiparasitic target. Recently, a quantitative high-throughput screen of the NIH Molecular Libraries Small Molecule Repository (MLSMR, ~71K at the time of the screen in 2007) was performed using an assay that targeted both TGR and peroxiredoxin2 (Prx2, an H2O2-reducing enzymatic component of the S. mansoni redox "firewall") by following the decrease of NADPH fluorescence. […] Additional mechanistic link between exogenous NO donation and parasitic injury for the oxadiazole-2-oxide class of compounds was also expanded and better defined. Although the screen addressed both TGR and Prx2, the assay required post-screen target deconvolution for further characterization of the actives. In addition, the fluorescence assay was also subject to fluorescence interference from compound library members. We have developed a 1536-well-based kinetic HTS assay to address TGR alone. The assay followed the reduction of 5, 5'-dithiobis (2-nitrobenzoic acid) (DTNB) (Ellman's reagent) by NADPH and measured the increase in absorbance at 412 nm of the reaction product, TNB. […] This assay format can be used to screen the current MLSMR collection (with >300K compounds available) to find novel TGR inhibitors. Furoxan is a good choice to serve as a positive control in the primary HTS assay.
Three microliters of reagents (100 uM NADPH and 20 nM TGR or 100 uM NADPH as no-enzyme control) were dispensed into 1,536-well black clear-bottomed plates. Compounds (23 nL) were transferred via Kalypsys pin tool equipped with 1536-pin array (10 nL slotted pins, V&P Scientific, San Diego, CA). The plates were then be incubated for 15 min at room temperature, and 1 uL aliquot of 500 uM NADPH were added, immediately followed by a 1 uL aliquot of 15 mM DTNB to start the reaction. The plate was transferred to a ViewLux high-throughput CCD imager (Perkin-Elmer, Wellesley, MA) where kinetic measurements of the TNB absorbance were acquired using a 405 excitation filter. Throughout the screen, reagent bottles and all liquid lines were made light-tight to minimize reagent degradation. All screening operations were performed on a fully integrated robotic system (Kalypsys, San Diego, CA) containing one RX-130 and two RX-90 anthropomorphic robotic arms (Staubli, Duncan, SC). Library plates were screened starting from the lowest and proceeding to the highest concentration, and a "double-dipping" step of the highest concentration was required to access higher concentrations of compounds. Vehicle-only plates, with DMSO being pin-transferred to the entire column 5-48 compound area, were inserted uniformly at the beginning and the end of each library in order to monitor for and record any shifts in the background, which can be affected by reagent dispensers or loss in enzyme activity overtime. […]
Further: nearly all actives have a fitted effect of over 60% in size.
Potency means the concentration at half of the fitted maximal effect; tags describe the fitted curve by direction and shape.

Compound | Potency
CC1(C)CC(=O)C(Sc2nnc(-c3ccc(NS(C)(=O)=O)cc3)n2Cc2ccco2)C(=O)C1 | inconclusive [inhibitor, partial curve]
N#C/C(=C\c1ccc(OCC(N)=O)cc1)C(=O)NC1CC1 | inactive
Cc1ccc(Cn2c(SCC(=O)C(C)(C)C)nc3ccsc3c2=O)cc1 | inactive
CC(=O)Oc1ccc(N2C(=O)CC(N3CCOCC3)C2=O)cc1 (stereo not given) | active: 22.4 µM
COc1ccc(/C=C2\N=C(C)OC2=O)cc1OC(C)=O | inconclusive [inhibitor, partial curve]
CN(C)CCNC(=O)c1cc2sc3ccccc3c2s1 | inconclusive [inhibitor, partial curve]
COc1cc(/C=C/C(=O)OCC(=O)Nc2ccc(S(=O)(=O)N3CCCC3)cc2)ccc1O | inconclusive [inhibitor, partial curve]
O=C(N/N=C/C=N/NC(=O)c1ccco1)c1ccco1 | inactive
CS(=O)(=O)c1ncc(Cl)c(C(=O)Nc2ccc(OC(F)F)cc2)n1 | active: 7.94 µM
CN1C(C(=O)c2ccccc2)=C(N)c2ccccc2S1(=O)=O | inactive
CCCN(CCC)CCNC(=O)c1ccc2c(c1)NC(=O)C(CS(=O)(=O)Cc1cccc(Br)c1)N2 (stereo not given) | inconclusive [inhibitor, partial curve]
COc1ccc(N/N=C(/C#N)S(=O)(=O)c2nsc(C)c2C#N)cc1 | inconclusive [inhibitor, single point]
C#CCOc1c(Br)cc(/C=C2/C(=O)ON=C2C)cc1OCC | inconclusive [inhibitor, partial curve]
COc1cc2cc(C(c3nnnn3Cc3ccc(F)cc3)N3CCCCCC3)c(=O)[nH]c2cc1OC (stereo not given) | inconclusive [inhibitor, partial curve]
COc1ccc(CCNC(=O)c2cn(C)c3ccc(S(=O)(=O)N(C)C4CCCCC4)cc3c2=O)cc1OC | inactive
O=C(O)c1ccccc1SCC(=O)N1CCCCC1 | inactive
Cc1ccc(NC(=O)Nc2sc3nc4n(c(=O)c3c2C)CCC(C)CC4)c(Cl)c1 (stereo not given) | inactive
COc1cccc(C2=CC(c3cc(Br)ccc3F)n3nnnc3N2)c1 (stereo not given) | inconclusive [inhibitor, partial curve]
Cc1cc(C)cc(NC(=S)NCc2ccncc2)c1 | inconclusive [inhibitor, partial curve]
O=C1NC(=O)C(C(CC(=O)c2ccccc2)c2ccccc2)C(=O)N1 (stereo not given) | inconclusive [inhibitor, partial curve]
COc1cccc(C2C(C#N)=C(N)OC(C(C)(C)C)=C2C#N)c1 (stereo not given) | inconclusive [inhibitor, full curve, poor fit]
CCOC(=O)C(=NCC1CCCO1)NNc1ccccc1Cl (stereo not given) | inconclusive [inhibitor, partial curve, poor fit]
O=C(NCc1ccc2c(c1)OCO2)c1c(Cl)cccc1Cl | inconclusive [inhibitor, full curve, poor fit]
COc1cccc(CN2CCNC(=O)C2CC(=O)NCc2cn3ccccc3n2)c1OC (stereo not given) | inconclusive [inhibitor, partial curve]
CCOc1ccccc1N(C(=O)CNS(=O)(=O)c1ccccc1)C(CC)C(=O)NCc1ccco1 (stereo not given) | inconclusive [inhibitor, partial curve]

Compound | Potency
C=CCOc1ccccc1/C=N/NC(=O)Cc1ccc(C)cc1 | inactive
COc1ccc(NC(=S)N(CCN2CCOCC2)Cc2cc3cc4c(cc3[nH]c2=O)OCO4)cc1 | inconclusive [inhibitor, partial curve]
CCn1c(COc2cccc3cccnc23)nnc1SCC(=O)O | inconclusive [inhibitor, full curve, poor fit]
Cc1ccc2nc(-c3ccccn3)c(NC3CCCC3)n2c1 | inactive
COc1cc(C(C)=O)ccc1OC(=O)CN1C(=O)c2ccccc2C1=O | inconclusive [inhibitor, partial curve]
CCCc1cc(C(=O)N2CCCC(C(=O)c3cc(C)c(OC)c(C)c3)C2)n(C)n1 (stereo not given) | inactive
COCCn1c(C)cc(O)c(C(c2ccccc2)N2CCN(c3ccccc3)CC2)c1=O (stereo not given) | active: 4.47 µM
Cc1ccccc1C1CCCN(Cc2nc(C3CC3)no2)C1 (stereo not given) | inconclusive [inhibitor, single point]
O=[N+]([O-])c1ccc(NC(=S)N2CCCC2)cc1 | inactive
O=C(Nc1nccs1)c1ccc(COc2ccc(Cl)cc2)o1 | inconclusive [inhibitor, single point]
CCCCNC(=S)Nc1cc(S(=O)(=O)N2CCCCC2)ccc1C | active: 2 µM
Cc1occc1C(=O)N1CCN(c2ccc(Cl)cc2)CC1 | inconclusive [inhibitor, single point]
Cc1ccc(-c2cc(NC(=O)CCl)n(-c3ccccc3)n2)cc1 | inconclusive [inhibitor, partial curve]
COc1cc(Nc2ccccc2Cl)c([N+](=O)[O-])nc1[N+](=O)[O-] | active: 39.8 µM
Cc1ccc(/C=C2\SC(=S)N(c3cccnc3)C2=O)o1 | inconclusive [inhibitor, partial curve]
COc1ccc(CCNC(=O)c2cc3sccc3n2Cc2ccc(Cl)cc2)cc1OC | inactive
COc1ccc(OCCCn2cccc2/C=C2/C(=N)N3OC(C)=CC3=NC2=O)cc1 | inactive
Cc1csc(=O)n1CCC(=O)OCC(=O)NNC(=O)c1ccccc1 | inconclusive [inhibitor, partial curve]
CCOC(=O)c1c(NC(=S)NC(=O)/C=C/c2cccs2)sc(C)c1C | inactive
Cc1ccccc1Cc1c(C)nc2c(C(=O)NCc3ccco3)cnn2c1C | active: 22.4 µM
CCCC(=O)Nc1c(-c2ccccc2Cl)c(=O)c2ccccc2n1C | inactive
O=C(O)CN1C(=O)/C(=C\c2cc(Br)ccc2OCc2ccc([N+](=O)[O-])cc2)SC1=S | inconclusive [inhibitor, partial curve]
CCOc1ccc(S(=O)(=O)N2CCC(C(=O)OC(C)C(=O)N(C)C3CCCCC3)CC2)cc1 (stereo not given) | inconclusive [inhibitor, full curve, poor fit]
COC(=O)c1cc(S(=O)(=O)C(C)C)c(S(C)=O)s1 (stereo not given) | active: 35.5 µM
CCCCNC(=O)c1onc(CSc2ccccc2F)c1C(=O)O | inconclusive [inhibitor, full curve, poor fit]

Compound | Potency
O=C(NCc1ccco1)/C(=C/c1ccco1)NC(=O)c1ccc(Br)o1 | active: 39.8 µM
N#C/C(=C(/O)CCl)c1nnc2n1CCCCC2 | inconclusive [inhibitor, partial curve]
O=C(N/N=C/c1ccco1)C1CCCC1 | inactive
O=C(Nc1cccc2[nH]ncc12)NS(=O)(=O)c1ccccc1 | inconclusive [inhibitor, single point]
CN(CC1COCCO1)c1nc2nonc2nc1N1CCSCC1 (stereo not given) | inconclusive [inhibitor, partial curve]
COc1ccc(SCCN2CCN(CC(C)C)CCC2=O)cc1 | inconclusive [inhibitor, partial curve]
COc1ccccc1N1CCN(C(c2ccc(Cl)cc2)c2nnnn2C(C)(C)C)CC1 (stereo not given) | inactive
O=c1c(Cl)c(Cl)cnn1-c1ccccc1 | active: 39.8 µM
O=C(CSc1nc2ccsc2c(=O)n1Cc1ccccc1Cl)NCc1ccc(F)cc1 | inactive
COc1ccc(C(CCN2CCCC2)c2c(O)cc(OC)cc2OC)cc1 (stereo not given) | inconclusive [inhibitor, partial curve]
Cc1ccc(-c2nc(CS(=O)CC(=O)N3CCN(c4cccc(Cl)c4)CC3)c(C)o2)cc1 (stereo not given) | inconclusive [inhibitor, partial curve]
O=C(CSc1nnc(-c2ccncc2)o1)Nc1ccccc1Cl | inactive
COC(=O)c1ccc2c(c1)NC(=O)C(N1CCCC1)S2 (stereo not given) | inconclusive [inhibitor, single point]
COc1ccc(C(=O)Nc2cc(C)c(O)c(-c3nc4ccccc4s3)c2)cc1OC | inconclusive [inhibitor, single point]
Cc1oc(CSCCSCc2cc(C(=O)O)c(C)o2)cc1C(=O)O | inconclusive [inhibitor, partial curve]
COc1ccc(Cc2nc3ccc(C(=O)N4CCCN(C=O)CC4)cc3o2)cc1 | inactive
O=C(CN1C(=O)COc2ccc(S(=O)(=O)NC3CCCC3)cc21)Nc1ccc(Cl)cc1 | inactive
CCCOc1ccc(C(=O)Nc2ccc(NC(=O)c3ccccc3)c(Br)c2)cc1 | inactive
O=C(Nc1nnc2n1CCS2)c1ccco1 | inactive
CN1CCN(C(=S)NC(=O)/C=C/c2cccc3ccccc23)CC1 | inconclusive [inhibitor, single point]
CCOc1cc(C(=O)OCC(=O)NCc2ccco2)cc(OCC)c1OCC | active: 25.1 µM
COC(=O)c1cc(OC)c(OC)cc1NC(=O)CSc1ccc(C)cc1 | inconclusive [inhibitor, full curve, poor fit]
Cc1ccc(C(OCC(O)CNC(CO)C(O)c2ccc([N+](=O)[O-])cc2)c2ccccc2)cc1 (stereo not given) | inactive
Cc1nnc(NC(=O)c2nc(SCc3ccccc3F)ncc2Cl)s1 | inactive
COc1ccccc1NC(=O)CN1C(=O)C2(SCC(=O)N2c2ccc(F)c(F)c2)c2ccccc21 (stereo not given) | inactive

Source: PubChem BioAssay AID485364 (National Center for Advancing Translational Sciences (NCATS), 2010)
